Values joined by “and” are separate entries in the source; they are usually repeats but may differ in a detail not shown here. Equal values may be shown once. Hit rate of the full screen: of about 290,000 compounds, about 2,100 (0.72%) were called active. Inconclusive means that the source gave no clear call. Such entries were picked first, then a sample of the others. Calls follow the shape of the dose curve; as a rule, active = well fitted inhibition curve with a large enough effect; inconclusive = small, poorly fitted or top-dose-only effect, or effect the other way; inactive = flat fitted curve, though single readings scatter. Potencies of inconclusive entries are doubtful fits and often do not repeat.
Biological target: Fructose-bisphosphate aldolase (Giardia intestinalis (strain ATCC 50803 / WB clone C6)) (UniProt A8B2U2)
Chain of UniProt A8B2U2 (A8B2U2 whole entry, looked up): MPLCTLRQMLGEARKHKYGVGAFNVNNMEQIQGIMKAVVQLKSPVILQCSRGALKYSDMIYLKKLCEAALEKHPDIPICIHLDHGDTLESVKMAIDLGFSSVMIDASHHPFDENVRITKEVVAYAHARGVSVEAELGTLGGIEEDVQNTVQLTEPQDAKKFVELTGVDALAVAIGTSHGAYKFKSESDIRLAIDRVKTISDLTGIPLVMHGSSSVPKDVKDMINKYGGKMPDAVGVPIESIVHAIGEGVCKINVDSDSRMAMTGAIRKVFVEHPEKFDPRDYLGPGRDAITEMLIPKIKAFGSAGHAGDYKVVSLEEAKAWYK
Assay: qHTS Assay for Inhibitors of Fructose-1,6-bisphosphate Aldolase from Giardia Lamblia; also: nearly all actives have a fitted effect of over 55% in size
Conditions: purified Giardia FBPA; activity, negative = inhibition: at 59.6 µM (top of the series) unless noted
Method in brief: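 Giardia FBPA (40 nM reagent) was preincubated 10 min at RT with compound (up to 57.5 uM final), then substrate plus GAPDH/TPI/NAD/arsenate coupling system with diaphorase/resazurin was added; resorufin fluorescence (525/598 nm) was read after 20 min.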
% is scaled to controls: 0 for no effect and ±100 for the full control effect; potency is read from the fitted curve at half-maximal effect; tags tell the direction and shape of the fitted curve.

Compound | Potency | activity, negative = inhibition
Cc1ccc(-c2csc(N3CCN(c4cc5c(cc4Cl)nc(-c4ccncc4)n5CCOCCO)CC3)n2)cc1 | inconclusive: 39.8 µM [inhibitor, single point] | 
Cc1csc(NC(=O)/C=C/c2ccco2)n1 |  | inactive: -6.98%
O=c1[nH]c(=S)[nH]c2sccc12 | active: 7.06 µM | 
CC(=O)c1cccc(OCC(O)CNCC2COc3ccccc3O2)c1 (stereo not drawn) | inconclusive: 25.1 µM [inhibitor, partial curve] | 
COc1cccc(CNC(C)C(=O)Nc2ccc3c(c2)OCCO3)c1 (stereo not drawn) | inconclusive: 14.1 µM [inhibitor, partial curve] | 
O=C(CC1C(=O)OCC2CCCCN21)Nc1ccccc1C(F)(F)F (stereo not drawn) | active: 22.3 µM | 
COc1ccc(-c2csc3[nH]c(=S)n(-c4ccccc4)c(=O)c23)cc1OC |  | inactive: 16.5%
CN(C)c1nc(N/N=C/c2ccccc2O)nc(Nc2ccc(F)cc2)n1 | inconclusive: 25.1 µM [inhibitor, single point] | 
Nc1nc(=S)c2ncn([C@H]3O[C@@H](CO)[C@@H](O)[C@@H]3O)c2[nH]1 | active: 5.61 µM | 
Cc1ccsc1CN1CCN(c2ccccn2)CC1 | inconclusive: 15.8 µM [inhibitor, partial curve] | 
Cc1nc2ccc(NC(=S)NC3CC3)cc2nc1C | inconclusive: 17.7 µM [inhibitor, single point] | 
NC(=O)C1CCN(C(=O)C2CCC(=O)N(CC3CCCCC3)C2)CC1 (stereo not drawn) |  | inactive: 2.12%
C/C(=C\C(=S)Nc1ccccc1)Nc1cccc2ccccc12 | inconclusive: 5.61 µM [inhibitor, full curve] | 
COc1ccccc1-c1nnc(SC/C(O)=C(\C#N)c2nc3ccccc3[nH]2)n1C1CCCCC1 | inconclusive: 39.7 µM [activator, single point] | 
C=CC1=C(C(=O)O)N2C(=O)C(NC(=O)/C(=N\O)c3csc(N)n3)C2SC1 (stereo not drawn) | inconclusive: 17.7 µM [inhibitor, single point] | 
Cc1ncc(CO)c(/C=N/NC(=S)Nc2ccc(F)cc2)c1O | inconclusive: 11.2 µM [inhibitor, partial curve] | 
COc1cc(/C=C2/C(=O)NN(c3ccc(F)cc3)C2=O)cc(Cl)c1O | inconclusive: 15.8 µM [inhibitor, partial curve] | 
O=C(NNC(=O)C1C2CCCCC21)c1coc(=O)c(Br)c1 (stereo not drawn) |  | inactive: -29.5%
CCOC(=O)C1(C(C)(C)CC)CC(CSc2nc3ccccc3[nH]2)OC1=O (stereo not drawn) | inconclusive: 25.1 µM [inhibitor, single point] | 
CCN1C(=O)c2cccc3c(NS(=O)(=O)c4ccc(NC(C)=O)cc4)ccc1c23 | inconclusive: 8.91 µM [inhibitor, partial curve] | 
COc1cc(/C=C2\C(=O)NC(=O)N(c3ccccc3)C2=O)cc(OC)c1O | active: 9.98 µM | 
COC(=O)c1ccc(NC(=O)c2cc[n+](Cc3ccccc3)cc2)cc1 | inconclusive: 20 µM [inhibitor, single point] | 
O=C1/C(=C\c2cc3c(cc2Br)OCO3)N2CCC1CC2 | inconclusive: 4.46 µM [inhibitor, full curve] | 
CCCCNC(=O)COC(=O)c1cc(F)c(F)cc1Cl |  | inactive: -2.43%
C/C(=N\NC(=O)c1ccc(NS(=O)(=O)c2cccs2)cc1)c1ccc(O)cc1O | inconclusive: 19.9 µM [activator, partial curve] | 

Compound | Potency | activity, negative = inhibition
COc1cc(CN2CCC(C(N)=O)CC2)ccc1OCc1ccccc1 | inconclusive: 7.94 µM [inhibitor, partial curve] | 
CC1CC(C)CN(C(=O)c2ccc3c(c2NCCO)C(=O)c2ccccc2C3=O)C1 (stereo not drawn) |  | inactive: -8.16%
COc1ccc(OCCOC(=O)c2cccc(-n3cnnn3)c2)cc1 |  | inactive: 6.84%
O=C(O)[C@@H]1Cc2[nH]cnc2C(c2cccnc2)N1 (stereo partly drawn) | inconclusive: 15.8 µM [inhibitor, single point] | 
Cc1ccc(S(=O)(=O)N2CCN(Cc3ccccc3C(F)(F)F)CC2)cc1 | inconclusive: 17.7 µM [inhibitor, single point] | 
CCc1ccc(S(=O)(=O)/N=C2\C=C(Nc3ccc(O)cc3)C(=O)c3ccccc32)cc1 | active: 1.41 µM | 
Cc1ccc(C(=O)N/N=C\c2ccc([N+](=O)[O-])o2)cn1 | active: 11.2 µM | 
COc1cccc(CN2CCCC(C(=O)N3CCCCC3)C2)c1 (stereo not drawn) | inconclusive: 14.1 µM [inhibitor, partial curve] | 
O=S(=O)(Nc1ccc(Cl)cn1)c1cccc(S(=O)(=O)c2ccccc2)c1 | inconclusive: 22.3 µM [activator, single point] | 
CNc1nc(N)c(C(=O)C23CC4CC(CC(C4)C2)C3)s1 |  | inactive: 1.3%
CCN1CCN(Cc2c3ccccc3cc3ccccc23)CC1 | inconclusive: 14.1 µM [inhibitor, partial curve] | 
COCCCNC(=O)Cn1nnc(-c2ccc(NC(=O)c3ccccc3OC)cc2)n1 |  | inactive: 2.86%
COc1cccc(C(=O)Nc2ccc(F)cc2F)c1 |  | inactive: 1.12%
O=C1C2C3C=CC(CC3)C2C(=O)N1c1ccc(Cl)cc1 (stereo not drawn) |  | inactive: 8.86%
O=C(CSc1n[nH]c(=O)n1C1CC1)c1ccc(F)cc1 |  | inactive: -2%
Cc1cc(CNCc2cn(C)nc2-c2ccc(Oc3ccccc3)cc2)on1 |  | inactive: -1.23%
COc1cccc(C(=O)CSc2nnc(CNS(C)(=O)=O)n2-c2ccc(C)cc2)c1 | inconclusive: 15.8 µM [inhibitor, partial curve] | 
NC(=O)CSc1nnc(NC(=O)c2cccc(S(=O)(=O)N3CCCCC3)c2)s1 | inconclusive: 15.8 µM [activator, partial curve] | 
O=C(c1cccnc1)C1Cc2ccccc2C1=O (stereo not drawn) | inconclusive: 19.9 µM [inhibitor, single point] | 
CC(=O)c1cccc(NC(=S)NC(=O)c2ccc(Br)cc2)c1 | inconclusive: 15.8 µM [inhibitor, single point] | 
Cc1ccc2nc(NCCC(=O)O)nc(-c3ccccc3)c2c1 | inconclusive: 17.7 µM [activator, single point] | 
CCOc1ccc(CNc2cccc(SC)c2)cc1 | inconclusive: 15.8 µM [inhibitor, single point] | 
Cc1ccc2c(Cl)cc(Cl)c(OCC(=O)Nc3cc(S(=O)(=O)N(C)C)ccc3C)c2n1 | inconclusive: 22.3 µM [inhibitor, partial curve] | 
O=Nc1ccc(O)c2ncccc12 | inconclusive: 15.8 µM [inhibitor, partial curve] and inconclusive: 8.89 µM [inhibitor, partial curve] | 
Nc1c2c(nc3ccc(Br)cc13)N(c1ccccc1)CC2 | inconclusive: 17.7 µM [inhibitor, partial curve] | 

Compound | Potency | activity, negative = inhibition
CCn1c(CSc2n[nH]c(N)n2)nc2cc(C(=O)O)ccc21 | active: 15.8 µM | 
O=C(N/N=C/c1cccc([N+](=O)[O-])c1O)C(O)(c1ccccc1)c1ccccc1 | inconclusive: 39.8 µM [activator, single point] | 
FC(F)(F)c1ccc(-c2n[nH]c(=S)o2)nc1 | inconclusive: 19.9 µM [inhibitor, single point] | 
CN1CCCC2(CCN(C(=O)c3cccc(F)c3)CC2)C1 |  | inactive: 1.57%
O=C(O)COc1ccccc1/C=N/NC(=O)c1cccc(S(=O)(=O)N2CCOCC2)c1 | inconclusive: 17.7 µM [inhibitor, partial curve] | 
COC(=O)/C(=N\Nc1ccccc1)Sc1nnc(-c2ccc(OC)cc2)n1C | inconclusive: 7.92 µM [inhibitor, partial curve] | 
CNC(=S)Nc1ccc2nc(C)c(C)nc2c1 | inconclusive: 5 µM [inhibitor, partial curve] | 
O=C(N/N=C/c1ccc(N2CCOCC2)o1)c1cccc([N+](=O)[O-])c1 | inconclusive: 1.58 µM [inhibitor, full curve] | 
C=CCOc1c(Cl)cc(CNCCCN2CCOCC2)cc1OC | inconclusive: 14.1 µM [inhibitor, partial curve] | 
CN(C)c1ccc2c3c(cccc13)C(=O)N(c1ccccc1)C2=O |  | inactive: 4.35%
[O-]/C(=C(\C(=S)NCCN1CCOCC1)[n+]1ccccc1)c1ccc(Cl)s1 | inconclusive: 31.5 µM [inhibitor, single point] | 
O=C(Oc1c(CN2CCOCC2)cc(Cl)c2cccnc12)c1ccccc1Cl | inconclusive: 17.7 µM [inhibitor, single point] | 
COc1ccc(NC(=S)Nc2cccc(C)n2)cc1 |  | inactive: 0.177%
COC(=O)C1=C(C)NC(=O)/C1=C\c1cc(C)n(-c2ccccc2)c1C | inconclusive: 14.1 µM [inhibitor, partial curve] | 
CN(C)CCn1c(NC(=O)c2ccc(Cl)cc2)nc2ccccc21 |  | inactive: -0.0204%
COc1ccccc1CN1CCN(C(=O)Cc2ccccc2)CC1 | active: 17.8 µM | 
N#Cc1c2ccc(O)cc2n2ccccc12 | inconclusive: 15.8 µM [inhibitor, partial curve] | 
Cc1cc(NC(=O)CCN2CCN(CCO)CC2)ccc1Br | inconclusive: 15.8 µM [inhibitor, partial curve] | 
CCCCCNC1=CC(=O)CC(c2ccccc2)C1 (stereo not drawn) |  | inactive: -0.548%
Cc1ccc(NC(=S)NC(=O)c2ccccc2)cc1NC(=S)NC(=O)c1ccccc1 | inconclusive: 2.82 µM [inhibitor, partial curve] | 
COCc1cc(=O)[nH]c(Nc2nc3ccccc3o2)n1 | active: 9.98 µM | 
CC(=O)CCc1ccc(OCC(O)CNC2CCCc3ccccc32)cc1 (stereo not drawn) |  | inactive: -1.85%
CC(C)(C)c1ccc(S(=O)(=O)NCC(=O)Nc2ccc(-c3nc4ccccc4s3)cc2)cc1 |  | inactive: 10.2%
